Laboratory results reported in PubChem BioAssay AID624418 (National Center for Advancing Translational Sciences (NCATS), 2012).
Out of some 410,000 compounds screened, about 530 (0.13%) were called active. The inconclusive results got no clear call from the source; some entries with a clear call stand among them for comparison. The call rests on the fitted dose curve; in most records, active means well fitted inhibition curve with a large enough effect; inconclusive means small, poorly fitted or top-dose-only effect, or another doubt; inactive means no such curve, though single readings can be large or run the other way. Where the call is inconclusive, the potency comes from a doubtful curve fit.

Test: qHTS of GLP-1 Receptor Inverse Agonists: Cytotox Screen
Details: HEK293 cAMP-luciferase reporter cells, luminescence, 24 h; activity change, negative = inhibition: at 38.3 µM (top of the series) unless noted
Procedure, shortened: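 To flag toxic compounds, the library was rerun on cells for 24 hr at 37 deg C and 5% CO2. Viability-linked luminescence was captured 12 min after adding luciferase detection reagent.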
On the % scale 0 is the no-effect control and ±100 the full control effect; potency means the concentration at half of the fitted maximal effect.

Compound	Potency	activity change, negative = inhibition
COc1cc2nc(SCc3ccc(F)cc3)n(Cc3cccs3)c(=N)c2cc1OC	inconclusive: 8.91 µM [inhibitor, partial curve, poor fit]	
COC(=O)c1cccc(Cn2c(Cl)c(/C=N/Nc3ccccc3C)sc2=O)c1	inconclusive: 10 µM [inhibitor, partial curve, poor fit]	
Cc1cc2oc(=O)cc(CN3CCC(C)CC3)c2cc1Cl		inactive: 4.93%
O=C(NC1CCCCC1)N(CCN1CCCC1)Cc1cc2cc3c(cc2[nH]c1=O)OCCO3		inactive: -27.3%
CCCCN(CC)C(=O)CSc1nc2n[nH]c(C)c2c(=N)n1-c1cccc(Cl)c1		inactive: -6.13%
COc1ccc(/C=C/C(=O)NC(=S)NN2CCCCC2c2cccnc2)cc1 (centres undefined)	inconclusive: 28.2 µM [inhibitor, single point]	
CCN(CC(=O)NCc1ccc(F)cc1)Cc1nc2ccccc2c(=O)[nH]1	inconclusive: 28.2 µM [inhibitor, single point]	
COc1ccc(Br)c(C=O)c1OS(=O)(=O)c1ccc(C)cc1	inconclusive: 12.6 µM [inhibitor, partial curve, poor fit]	
COc1ccc(CNc2ncc(-c3ccccc3)n2C)c2ccccc12	inconclusive: 14.1 µM [inhibitor, partial curve, poor fit]	
CC(C)c1nc(N2CCN(C(=O)c3ccco3)CC2)c2c3c(sc2n1)CCCC3	inconclusive: 3.98 µM [inhibitor, partial curve, poor fit]	
COc1cc(/C=N/N=C(N)N)ccc1OCc1ccccc1Cl	inconclusive: 28.2 µM [inhibitor, single point]	
Cc1ccc(C)c(N2CCN(S(=O)(=O)c3ccc4[nH]c5c(c4c3)CCCCC5)CC2)c1		inactive: -11.1%
CCc1ccc(NC(=O)N2CCOc3ccc(Cl)cc32)cc1		inactive: 10.3%
CCCCN(C)C(=O)c1cc2cc([N+](=O)[O-])cc(OC)c2oc1=O	inconclusive: 22.4 µM [inhibitor, single point]	
O=C(NC(c1ccc(-c2ccccc2)cc1)c1cnccn1)C1CCN(Cc2cccc(C(F)(F)F)c2)CC1 (centres undefined)	inconclusive: 10 µM [inhibitor, single point]	
Cc1[nH]nc2c1C(c1ccc(-c3ccc(Cl)cc3)o1)C(C#N)=C(N)O2 (centres undefined)	inconclusive: 28.2 µM [inhibitor, single point]	
Cc1ccc(-c2nnn(CC(=O)N(Cc3cccs3)C(C(=O)NC3CCCC3)c3ccncc3)n2)cc1 (centres undefined)	inconclusive: 11.2 µM [inhibitor, single point]	
CCC(=O)NCCc1cc2cc(C)c(C)cc2[nH]c1=O		inactive: 19.8%
O=C(CN1C(=O)C2(SCC(=O)N2c2cccc(F)c2)c2ccccc21)NCCc1ccccc1 (centres undefined)		inactive: -9.32%
Cc1ccc(CN2CCCC(CO)(Cc3ccccc3C)C2)s1 (centres undefined)	inconclusive: 28.2 µM [inhibitor, single point]	
COc1cc(C(CCN2CCCC2)c2c(OC)cc(OC)c3ccc(=O)oc23)cc(OC)c1OC (centres undefined)	inconclusive: 0.501 µM [inhibitor, full curve, poor fit]	
Cc1csc(NC(=O)c2ccc(N3CCCC3=O)cc2)n1		inactive: 5.24%
S=C(Nc1ccccc1)N1CCCCC1	inconclusive: 28.2 µM [inhibitor, single point]	

Compound	Potency	activity change, negative = inhibition
O=C1CCCN1CCCN=c1c([N+](=O)[O-])nn(-c2ccc(Cl)cc2)n1O	inconclusive: 12.6 µM [inhibitor, single point]	
Cc1ccc(S(=O)(=O)Nc2ccc(O)c3ccccc23)c(C)c1	inconclusive: 12.6 µM [inhibitor, single point]	
COc1ccccc1[C@]1(C)ON(c2ccccc2C(F)(F)F)C1=O	inconclusive: 15.8 µM [inhibitor, partial curve, poor fit]	
O=C(N=C1SC2CS(=O)(=O)CC2N1c1ccc(Br)cc1Cl)C1CC1 (centres undefined)		inactive: -3.7%
CCn1cc(C(=O)NC(=S)Nc2ccccc2[N+](=O)[O-])cn1	inconclusive: 3.16 µM [inhibitor, partial curve, poor fit]	
CCc1oc(C(=O)O)cc1COC		inactive: -2.88%
Cc1ccc(C)c(N2CCN(S(=O)(=O)c3ccc(-c4cnc(C5CC5)o4)cc3)CC2)c1		inactive: -18.9%
COC(=O)C(C)Oc1cc(OC(C)C(=O)OC)c2c(C)c(Cl)c(=O)oc2c1 (centres undefined)		inactive: -1.14%
Cc1ccccc1NC(=S)NC(=O)c1cncc(Br)c1	inconclusive: 14.1 µM [inhibitor, single point]	
O=C(NCCc1ccccc1)C1CCN(Cc2cc3ccccc3n2Cc2ccccc2)CC1		inactive: -16.7%
COc1ccc(-c2cn3cccnc3n2)cc1NC(=O)Nc1cc(C)ccc1C		inactive: -23.2%
O=[N+]([O-])c1ccc(/C=C2\CCC(C3=CCCC3)=C2N2CCOCC2)cc1		inactive: -7.32%
CC(=O)c1ccc(NC(=O)c2noc3c2CCC3)cc1	inconclusive: 11.2 µM [inhibitor, partial curve, poor fit]	
CC1(C(=O)NCc2ccco2)Cc2c(-c3cccc(C(F)(F)F)c3)ccnc2O1 (centres undefined)	inconclusive: 2 µM [inhibitor, full curve, poor fit]	
O=C(Nc1nnc(Cc2ccc(F)cc2)s1)Nc1ccccc1F	inconclusive: 0.501 µM [inhibitor, full curve, poor fit]	
Cc1cc(Cl)c(S(=O)(=O)N2CCSCC2)cc1OCC(N)=O		inactive: 14.9%
CC1CCN(CCCNS(=O)(=O)c2cc(Br)cc3c2N(C(=O)C2CC2)CC3)CC1	inconclusive: 28.2 µM [inhibitor, single point]	
C=CCn1c(O)c(/C=C2\C=NN=C2c2ccccc2)sc1=S	inconclusive: 28.2 µM [inhibitor, single point]	
O=C1/C(=C/c2cccnc2)SC(=S)N1Cc1ccco1	inconclusive: 28.2 µM [inhibitor, single point]	
O=S(=O)(Nc1nc2ccccc2nc1N1CCc2ccccc2C1)c1ccc(Cl)cc1		inconclusive: -61% [inhibitor] [at 1.53 µM]
CCNC(=S)NNc1nncc2ccccc12	inconclusive: 28.2 µM [inhibitor, single point]	
O=C(N/N=C/c1ccc2c(c1)OCO2)c1ccc(Br)o1		inactive: -18.2%
COc1ccc(C2=C(C)C(=O)N(Cc3ccc(C(=O)NC(C)c4ccccc4)cc3)S2(=O)=O)cc1 (centres undefined)		inactive: 5.42%

Compound	Potency	activity change, negative = inhibition
CCC(C)(C(=O)NC1CCCC1)N(C(=O)c1cnccn1)c1ccccc1 (centres undefined)	inconclusive: 6.31 µM [inhibitor, partial curve, poor fit]	
COC(=O)/C=C\C(=O)Nc1cccc([N+](=O)[O-])c1	inconclusive: 31.6 µM [inhibitor, single point]	
COc1ccccc1N=NC1C(=O)N(C(N)=S)N=C1C (centres undefined)	inconclusive: 7.94 µM [inhibitor, single point]	
CC(=O)Nc1sc2c(c1C(c1cccs1)N1CCOCC1)CCCC2 (centres undefined)		inactive: 11.4%
CS(=O)(=O)c1ccc(Sc2nc3ccccc3s2)c([N+](=O)[O-])c1	inconclusive: 28.2 µM [inhibitor, single point]	
Cc1nnc(NC(=O)CCC(=O)NC2CCCCCCC2)s1		inactive: 0.381%
Cc1nc2sccn2c(=O)c1S(=O)(=O)N1CCN(c2ccccc2)CC1		inactive: 0.587%
COc1cc(CCc2ccccc2)c(C(=O)O)c(O)c1C/C=C(/C)CCC=C(C)C	inconclusive: 11.2 µM [inhibitor, single point]	
C=CCC[C@H](Cc1ccc(F)cc1)C(=O)OC[C@H](C)NC(=O)[C@H](CC=C)CC(=O)NCCO		inconclusive: -39.8% [inhibitor]
CC(C)N1C/C(=C/c2cccnc2)C(=O)/C(=C/c2cccnc2)C1	inconclusive: 11.2 µM [inhibitor, single point]	
O=C(Nc1cc([N+](=O)[O-])ccc1N1CCCC1)c1cccs1	inconclusive: 25.1 µM [inhibitor, partial curve, poor fit]	
O=C1CN(C(=O)c2cc(F)cc(F)c2)c2ccccc2N1	inconclusive: 28.2 µM [inhibitor, single point]	
CCOc1ccc(NC(=S)NC(=O)Cc2ccccc2)cc1	inconclusive: 11.2 µM [inhibitor, single point]	
COc1ccccc1NS(=O)(=O)c1cccc(C(=O)NCC2(N3CCCCC3)CCCCC2)c1	inconclusive: 28.2 µM [inhibitor, single point]	
N=c1n(-c2ccccc2)c(O)cc(=O)n1-c1ccccc1	inconclusive: 28.2 µM [inhibitor, single point]	
COc1ccc(C=O)cc1OS(=O)(=O)c1ccc(NC(C)=O)cc1		inactive: -15%
CN(CC1CCCO1)S(=O)(=O)c1ccc(C(=O)Nc2nc(-c3ccccn3)cs2)cc1 (centres undefined)	inconclusive: 0.794 µM [inhibitor, partial curve, poor fit]	
N#C/C(=C\c1ccc(O)cc1)c1nc2ccccc2o1	inconclusive: 10 µM [inhibitor, single point]	
CCOc1ccccc1NC(=O)Cn1ncc2c([nH]c3ccccc32)c1=O		inactive: 4.06%
CN=c1scc(-c2ccco2)n1/N=C/c1ccc(O)c(O)c1	inconclusive: 28.2 µM [inhibitor, partial curve, poor fit]	
Cc1ccc(S(=O)(=O)N(CC(=O)N/N=C/c2ccco2)c2cc(Cl)cc(Cl)c2)cc1	inconclusive: 22.4 µM [inhibitor, single point]	
O=C(C1CCN(C2CC(=O)N(c3ccc(F)cc3)C2=O)CC1)N1CCOCC1 (centres undefined)		inactive: 13%
c1ccc(OCc2nn3c(-c4ccccn4)nnc3s2)cc1	inconclusive: 2.51 µM [inhibitor, partial curve, poor fit]	
